From the supplement of paper PMC10126150
Sequences with one replicate were seen in a single cluster, so their values are uncertain.

What follows are sequences tested on ATP (assay: switch fluorescence ratio, 500 uM ATP over buffer (Cy3 cluster intensity, sum of 5 cycles each) (fold (ratio)); higher = stronger signal-on switching upon ATP binding; sequences stand for … in TCGTCGGCAGCGTCAGATGTGTATAAGAGACAGTTTTTTTTTTTTTTTTTTTTTTTTT…TC). Conditions: aptamer strand: ATP DNA aptamer (quencher-CACCTGGGGGAGTATTGCGGAGGAAGG + anchor), 100 nM annealed; ATP concentration: 500 uM; one replicate.
Method in brief: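 Clusters with intensities outside 100-1000 RFU were excluded. The remaining Cy3-labelled switching-strand clusters on a modified Illumina MiSeq flow-cell had been annealed to 100 nM quencher-labelled ATP aptamer and imaged in selection buffer, then after 15 min with 500 uM ATP at 22 °C, for five cycles separated by NaOH stripping and re-annealing. The fluorescence ratio, averaged per switch-domain sequence, is each cluster's summed target-cycle Cy3 intensity over its summed buffer-cycle Cy3 intensity.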
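Note: ATP exposure 15 min at 22 °C before imaging.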

Row | Sequence | switch fluorescence ratio
1 | GCTATTCTCT | 0.975
2 | GCAAGCATCC | 1.53
3 | ACTCAAGTTG | 1.04
4 | TAGACGACCT | 1.09
5 | TTAATTTGAT | 1.01
6 | ACAACACTTG | 1.19
7 | TGCCTGTATT | 0.983
8 | GAGTGTAGGG | 0.992
9 | GACACGAATG | 0.904
10 | GTTAAAGAAA | 0.984
11 | ACGATAGCTT | 1.2
12 | AAGGGCAGCC | 0.963
13 | CGCATCCTAG | 1.07
14 | CGGGGCAGGA | 0.999
15 | TACCCTAGTA | 0.994
16 | GCGTGCTGGG | 0.968
17 | CCTGACCTTG | 0.998
18 | TGTTAAAAGT | 1.08
19 | AGCCACTTGA | 0.964
20 | CAGCAGTTTC | 1.33
21 | ATCCGGG | 0.984
22 | AACGGAGATT | 1.01
23 | CATTTTGGA | 1.02
24 | AGTTCTTTGG | 0.998
25 | GCTTTTTCAC | 0.985
26 | CCGGTGTACT | 2.92

Row | Sequence | switch fluorescence ratio
27 | AGATAACCGG | 0.994
28 | TTGCCATGCT | 1.01
29 | CCACCTAATA | 1.35
30 | ACGAGGAGAA | 0.986
31 | CATCGGTCAA | 3.23
32 | TCAACGTTG | 0.963
33 | GCTAACCGTC | 1.09
34 | GGACCATTGT | 0.977
35 | AACGTGTAGG | 0.994
36 | GGTATAAGTT | 0.982
37 | TCCGTCCGAG | 1.88
38 | AGCTCGAAGG | 1.04
39 | TAAATGCGTG | 1.01
40 | ATAAAGTCAA | 0.968
41 | CGTCTAAATT | 1.03
42 | GCCGTTGGAC | 1.05
43 | TCAGTATGGA | 0.959
44 | CTCTGAAACC | 1.12
45 | AGCTGTGC | 1.07
46 | TCGACCCGGA | 0.989
47 | ACGTGTTCCT | 1.01
48 | AAAGTTAAGA | 0.993
49 | CGAGTGTTT | 0.92
50 | AAATGCGAC | 1.09
51 | ATTCGCGATT | 1.07
52 | CGAGGGGCGC | 0.965

Row | Sequence | switch fluorescence ratio
53 | TAATAAACAC | 1.08
54 | AGGTCCGTGC | 0.984
55 | TGGTGTGTCT | 0.972
56 | CACATATTCA | 1.02
57 | TGTCATTCAG | 0.981
58 | CAATTAAAAA | 0.958
59 | TAACACCTCC | 1.36
60 | TGACTTTTTG | 1
61 | GCTGGTTCGG | 1
62 | TTCGGATTGA | 1
63 | AGCGTTGGGG | 1
64 | AATTAACTTG | 0.987
65 | AAAATGGCTG | 1.04
66 | CGCGGGGCAT | 1.02
67 | TTACTTCCCT | 1.17
68 | CATAAATATT | 1.01
69 | GAGGGGGTTA | 0.959
70 | TGTCGTTTTG | 1.02
71 | GTTCGCATCG | 1.02
72 | ACTTGTGCAA | 1.36
73 | CCTAAGGAAG | 0.97
74 | GTTGATAATT | 0.976
75 | TTCGTTACCC | 1.06
76 | AAGCCATTAA | 0.93
77 | TATTTCCAGC | 1.06
78 | GACGCCTCTG | 1.04

Row | Sequence | switch fluorescence ratio
79 | GGTGATCGTG | 0.987
80 | ACGTCAGTTA | 1.03
81 | ATAATGGTGA | 0.984
82 | TGCCTCCCGC | 2.11
83 | TTTGAGGACG | 1.09
84 | GTTAGTACTC | 1.02
85 | ACTGATGGTT | 1.04
86 | CGGGACACCA | 1.02
87 | GATCGCTGCG | 1.01
88 | GCATAAACAT | 1.02
89 | GCGGGGGA | 0.99
90 | CTATTTGGTG | 1.01
91 | TAAAAGTACC | 1.09
92 | ATCGTTGCGA | 0.968
93 | TCTTCTACAG | 1.03
94 | CAAGGCGAC | 1.04
95 | CGGGTATCTT | 0.998
96 | ATGGGGTGT | 0.968
97 | TGCTCTCTAA | 1.06
98 | TGTTCAACCA | 1
99 | CCAGTGCCCG | 1.12
100 | CTGCGCGCTC | 1.36
101 | CACCGTAACG | 1.2
102 | AGATAAATGG | 0.973
103 | TCGGTGGAGG | 0.982
104 | TTATGCCAAT | 0.959

Row | Sequence | switch fluorescence ratio
105 | CAGTTGGTAC | 1
106 | GGGTTTGGTA | 0.994
107 | CCGTGATATA | 1.33
108 | AGTAGCCTG | 1.05
109 | ACGTGGTTAC | 1.26
110 | TAAAGCTG | 1.03
111 | ATGCCGAGGC | 0.946
112 | TGTAAGCGAT | 1.15
113 | GGGGCATGCG | 1.02
114 | TAAATTCTA | 0.972
115 | TTTGAGAAAA | 0.966
116 | AAAATTACGT | 0.992
117 | CGCGGCGCAT | 1.05
118 | TGATCGGTGC | 1.16
119 | CGATTGTTGG | 1.01
120 | AACGTTGATC | 0.997
121 | GACAAAGCTC | 1.19
122 | CTGCGGCAGT | 1.06
123 | GTAGGCTATG | 0.976
124 | ATCGGACTAC | 1.39
125 | TAATTGCGGC | 0.976
126 | GCTGAGAGAA | 1
127 | ATGCGAGGGC | 1.04
128 | GTGTAACCGA | 1.04
129 | TGTATGAGAG | 1.01
130 | AGTAGATTCA | 0.971

Row | Sequence | switch fluorescence ratio
131 | CTGTAGGCTT | 1.05
132 | AAGTGGGGAT | 0.996
133 | TTTGTCCTTG | 0.99
134 | ACATGACTCA | 1.08
135 | TTTCCCGGGA | 1.02
136 | TAATATCGGC | 0.994
137 | ACGCGCGTTT | 1
138 | TCGTGACACG | 1.01
139 | CTGGGACCAT | 1
140 | TCCTAAAACT | 1.04
141 | TGGTGGATAA | 1.02
142 | TACGCAGAAC | 3.57
143 | GCTTATGTCA | 0.997
144 | GATAATGTCT | 0.985
145 | CCTTAGTGCT | 0.986
146 | AGGAGGGTGT | 1.11
147 | ACTTCGTTGG | 0.947
148 | TATCGTGCCG | 0.992
149 | ACCAACGTGC | 1.36
150 | AGTTCCAGTT | 0.979
151 | TTCAGTAGTC | 0.997
152 | ACCTTTTCTC | 1.18
153 | GAAGGAACGG | 0.975
154 | GGAGGCGATC | 1.04
155 | TTGACGTAGT | 1.01
156 | AGGGGAGAAA | 0.995

Row | Sequence | switch fluorescence ratio
157 | GTCCAAGTGA | 1.02
158 | AGAGCATCTT | 0.972
159 | CGTTGTTGAG | 0.998
160 | AATGGTTATG | 1.03
161 | CCGTGATCCA | 1.13
162 | TTTTCAGTAT | 1.01
163 | GAATCGAATC | 1
164 | AAAATCCATT | 0.975
165 | AGTGGTATTC | 0.942
166 | CGTGGTTGGC | 0.879
167 | TCGAACTTTT | 1.02
168 | TGGCAGATTA | 0.972
169 | AGACCCCGT | 0.995
170 | GTTTGACACG | 1.04
171 | GCGTTGGCGG | 0.991
172 | AGTCGGTATG | 0.961
173 | TAGAAGTGGG | 0.972
174 | AATCGGTCCG | 0.996
175 | CCGGTGCGAA | 2.07
176 | GGCTCTATGA | 1.04
177 | AACTTTGGCA | 0.984
178 | GTTGGGAA | 0.964
179 | ATTCAGTACT | 0.941
180 | ACTTCGACTC | 1.16
181 | ATCAGTAGTG | 0.982
182 | TTATAGTGG | 1.03

Row | Sequence | switch fluorescence ratio
183 | GGAAGTTTTA | 0.978
184 | TTCTAGAAA | 0.96
185 | CGACGGGTCG | 1.02
186 | TCCCGGTGTT | 1.81
187 | TCTTGATCGG | 0.962
188 | ATACCCAGTA | 1.01
189 | GCCTGAGGTT | 1.01
190 | ATTGGAGTCA | 1.02
191 | TAGTAAAAGA | 1.06
192 | AAAGTCTAGG | 0.989
193 | TGACATGTTG | 0.976
194 | GAATCGTCTA | 0.991
195 | TATTTAGCGG | 1.03
196 | ATGCCGTTGT | 1.03
197 | AAGCCTTTTA | 0.995
198 | CCGCTAGAGT | 2.81
199 | CGAGCCTCCT | 1.08
200 | TGTGTGATTG | 0.953
201 | TCCTAGAAAG | 1.01
